# Assay results published in PubChem BioAssay AID485294 (National Center for Advancing Translational Sciences (NCATS), 2010).
# Screen size: about 370,000 compounds; about 150 (0.041%) were called active. Inconclusive results, whose numbers are uncertain, are shown with a selection of clear calls. Calls follow the shape of the dose curve; as a rule, active = well fitted inhibition curve with a large enough effect; inconclusive = small, poorly fitted or top-dose-only effect; inactive = flat fitted curve, though single readings scatter. Potencies of inconclusive entries are left out as doubtful fits.
# Molecular target: Beta-lactamase (Escherichia coli (strain K12)) (UniProt P00811)
# Sequence of UniProt P00811 (P00811 whole entry, looked up): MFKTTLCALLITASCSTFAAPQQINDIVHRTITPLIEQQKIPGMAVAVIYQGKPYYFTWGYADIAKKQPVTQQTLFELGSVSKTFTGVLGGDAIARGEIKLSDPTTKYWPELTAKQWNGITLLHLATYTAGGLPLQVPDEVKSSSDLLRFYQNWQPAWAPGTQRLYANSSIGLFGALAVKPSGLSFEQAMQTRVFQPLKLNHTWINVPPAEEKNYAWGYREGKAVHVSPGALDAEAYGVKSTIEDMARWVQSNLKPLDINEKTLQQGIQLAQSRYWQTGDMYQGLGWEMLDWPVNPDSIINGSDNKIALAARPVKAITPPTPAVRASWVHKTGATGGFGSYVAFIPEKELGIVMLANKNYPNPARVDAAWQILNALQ
# Test: qHTS Inhibitors of AmpC Beta-Lactamase (assay with detergent); also: nearly all actives have a fitted effect of over 25% in size;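 as to activity change, negative = inhibition: 0% = no-compound wells and -100% = no-enzyme wells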
# Details: AmpC hydrolysis of nitrocefin, absorbance 480 nm, 0.01% Triton; activity change, negative = inhibition: at 114 µM (top of the series)
# Outline: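 AmpC (5.3 nM in the dispensed reagent) in 20 mM phosphate pH 7.0 with 0.01% (detergent screen) or 0.0001% Triton X-100 was preincubated with compounds for 15 min at room temperature. Nitrocefin was then added from an 800 uM solution, and hydrolysis was followed at 480 nm.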
# Potency is read from the fitted curve at half-maximal effect; tags tell the direction and shape of the fitted curve.
SMILES,Potency,"activity change, negative = inhibition"
COc1ccc(C(=O)Oc2cccnc2)cc1,"inconclusive [inhibitor, full curve, poor fit]",
CC(/C=N/NC(=O)c1cccs1)=C\c1ccco1,,inactive: -3.54%
COc1ccc(NC(=S)NC(=O)Cc2ccccc2)c(OC)c1,"inconclusive [inhibitor, full curve, poor fit]",
CCN(CC)C(=O)c1ccc(Nc2nnc(-c3ccc(C)c(S(=O)(=O)NC)c3)c3ccccc23)cc1,,inactive: 2.39%
COc1ccccc1-c1cc(-c2ccc(C)cc2)nc(SCc2nnc(-c3ccccc3)o2)c1C#N,"inconclusive [inhibitor, single point]",
O=C(O)C1CC=CCC1C(=O)N1CCN(c2nc(-c3ccccc3Cl)c3cc(Br)ccc3n2)CC1 (configuration not stated),"inconclusive [inhibitor, single point]",
COc1ccc(OC)c(S(=O)(=O)N2CCCC2C(=O)N2CCc3ccccc3C2)c1 (configuration not stated),"inconclusive [inhibitor, full curve, poor fit]",
CCCC(=O)NC(c1ccccc1)c1c(O)ccc2ccccc12 (configuration not stated),"inconclusive [inhibitor, full curve, poor fit]",
Clc1ccc(Cn2c(/C=C/c3ccco3)nc3ccccc32)cc1,"inconclusive [inhibitor, full curve, poor fit]",
CC1CCCCN1C(=O)c1ccc(S(=O)(=O)N2CCCCC2C)cc1 (configuration not stated),"inconclusive [inhibitor, partial curve]",
COCCCNC(=O)CN1CCN(Cc2ccc(Cl)cc2)C1=O,"inconclusive [inhibitor, full curve, poor fit]",
COc1ccc(/C=C/C(=O)Nc2ccc(N3CCOCC3)cc2)cc1,"inconclusive [inhibitor, partial curve, poor fit]",
CCCCOc1ccccc1CC1C(=O)Nc2ccc(Br)cc21 (configuration not stated),,inactive: 19.6%
CCOc1ccc(S(=O)(=O)N2CCN(CCNS(=O)(=O)c3ccc(C)cc3)CC2)cc1,"inconclusive [inhibitor, full curve, poor fit]",
Cc1cccc(NC(=O)c2ccccc2NC(=O)c2ccco2)c1,,inactive: -0.0591%
O=C1CC(Sc2ncccn2)C(=O)N1c1ccccc1 (configuration not stated),,inactive: -11.7%
Nc1nc(-c2ccc3c(c2)OCCO3)cs1,"inconclusive [inhibitor, full curve]",
COc1ccc(-c2cc(C(F)(F)F)nc(S(=O)(=O)CCCC(=O)Nc3cccnc3Cl)n2)cc1OC,,inactive: -7.58%
O=c1[nH]c(C2CCN(S(=O)(=O)c3ccc(S(=O)(=O)NC4CC4)cc3)CC2)nc2c1nnn2Cc1cccc(F)c1,,inactive: 2.12%
COC(=O)CCC(=O)Nc1ccc(NC(C)=O)cc1,"inconclusive [inhibitor, partial curve, poor fit]",
O=C(N/N=C/c1ccc(OC(F)F)cc1)c1ccc(Br)cc1,"inconclusive [inhibitor, full curve, poor fit]",
Cc1sc2nc(CN3CCOCC3)nc(N3CCC(C(N)=O)CC3)c2c1C,,inactive: -18.4%
Cc1cccc(NC(=S)Nc2ccccn2)c1,,inactive: -1.51%

SMILES,Potency,"activity change, negative = inhibition"
COc1cccc(CNC(=O)Cc2c(C(=O)O)c(C)cn2C)c1,,inactive: 8.52%
CC1CCCN(C(=O)CN(c2ccccc2)S(=O)(=O)c2ccc(F)cc2)C1 (configuration not stated),,inactive: -1.58%
Cc1c(N)cc(C(=O)N2CCOCC2)cc1[N+](=O)[O-],"inconclusive [inhibitor, partial curve, poor fit]",
COc1ccc(CC(=O)NCC(c2cccs2)S(=O)(=O)c2ccc(C)cc2)cc1 (configuration not stated),,inactive: 0.23%
Cn1c(NCc2ccccc2)nc2c1c(=O)n(Cc1ccc(Br)cc1)c(=O)n2C,"inconclusive [inhibitor, partial curve]",
O=C1CCCC2=C1C(c1ccccc1)C1=C(CCCC1=O)O2,"inconclusive [inhibitor, full curve, poor fit]",
O=C(CC1SC(=Nc2ccc(OC(F)F)cc2)N(CCC2=CCCCC2)C1=O)Nc1ccccc1F (configuration not stated),"inconclusive [inhibitor, full curve, poor fit]",
CC(C)[C@@H](N)C(=O)NCC1CCC(C(=O)N[C@@H](Cc2ccccc2)C(=O)O)CC1 (some centres not stated),"inconclusive [inhibitor, partial curve, poor fit]",
NC(CO)C(=O)NNCc1ccc(O)c(O)c1O (configuration not stated),"inconclusive [inhibitor, partial curve]",
COc1ccc(C2SCC(=O)N2CCc2ccc(OC)c(OC)c2)cc1 (configuration not stated),,inactive: -6.4%
O=C(NC1CCCC1)c1sc(=S)n2c1[nH]c(=O)c1ccccc12,,inactive: 1.49%
CCOc1ccc2nc(NCCNC(=O)C3CC3)c(C)cc2c1,"inconclusive [inhibitor, full curve, poor fit]",
CCN(CC)c1ccc(N=Cc2c(O)n(CCc3ccc(OC)c(OC)c3)c(=O)[nH]c2=O)cc1,,inactive: -0.157%
O=C1C2C3CCCC3=C3CCCC3C2C(=O)N1c1ccc(Cl)cc1 (configuration not stated),"inconclusive [inhibitor, full curve, poor fit]",
CC(=O)Oc1cc2cccc(OC(C)=O)c(=O)c2c(OC(C)=O)c1OC(C)=O,"inconclusive [inhibitor, full curve]",
CCC(C)n1c(C)nc2c(c1=O)c1nc3ccccc3nc1n2-c1ccc2c(c1)OCCO2 (configuration not stated),"inconclusive [inhibitor, full curve, poor fit]",
CCC(=O)Nc1nc2ccccc2n1CCN(C)C,"inconclusive [inhibitor, partial curve, poor fit]",
COc1ccc(NC(=O)Cn2c(=O)n(Cc3nc(-c4ccccc4)no3)c(=O)c3ccccc32)cc1Cl,,inactive: -6.03%
CCn1c(=O)c(=O)[nH]c2cc(C(=O)Nc3ccc(S(=O)(=O)N4CCCC4)cc3)ccc21,"inconclusive [inhibitor, full curve, poor fit]",
CN1CCN(C(=O)c2cccc(S(=O)(=O)N3CCCCC3)c2)CC1,"inconclusive [inhibitor, partial curve]",
CN(C)c1nc(-c2ccccc2)[n+](C)s1,,inactive: -2.64%
O=C(Nc1ccc(Cl)cc1)NC1CCS(=O)(=O)C1 (configuration not stated),"inconclusive [inhibitor, partial curve, poor fit]",
Oc1ccc(CNc2ccccc2F)c2cccnc12,"inconclusive [inhibitor, full curve]",

SMILES,Potency,"activity change, negative = inhibition"
Cc1ccc2nc(SCc3nc4c(cnn4-c4ccccc4)c(=O)[nH]3)[nH]c2c1,"inconclusive [inhibitor, full curve, poor fit]",
Cc1ccc(S(=O)(=O)N2CCN(Cc3ccco3)CC2)cc1C,"inconclusive [inhibitor, full curve, poor fit]",
Cc1ccc(S(=O)(=O)NCCC(=O)NCc2ccc3c(c2)OCO3)cc1C,"inconclusive [inhibitor, full curve, poor fit]",
CCc1ccccc1OCC(=O)Nc1ccc(S(=O)(=O)Nc2nc(C)cc(C)n2)cc1,,inactive: 27.4%
CCCCC1CC(CSc2ncn[nH]2)OC1=O (configuration not stated),"inconclusive [inhibitor, full curve, poor fit]",
Cc1cccc(N2CCN(CCNC(=O)Nc3ccc(Cl)cc3)CC2)c1C,,inactive: 6.37%
COc1ccccc1NC(=O)CSc1nc(-c2ccc(C(C)(C)C)cc2)c(C#N)c(=O)[nH]1,,inactive: 15%
CCc1cccc(-n2c(=O)c3cccnc3n2CC(=O)Nc2ccc(F)c(C)c2)c1,,inactive: 5.8%
CCC(NC(=O)OC(C)(C)C)C(=O)Oc1ccc2c3c(c(=O)oc2c1)CCC3 (configuration not stated),"inconclusive [inhibitor, partial curve, poor fit]",
CCOc1cc(/C=N/Nc2nc3ccccc3[nH]2)cc(Br)c1OCC(=O)N(C)C,"inconclusive [inhibitor, full curve, poor fit]",
COc1ccc(/C(O)=C2\C(=O)C(=O)N(c3cc(C)on3)C2c2ccccc2OC)cc1C (configuration not stated),"inconclusive [inhibitor, full curve, poor fit]",
Cc1ccc(CNC(=O)CN2C(=O)c3ccccc3S2(=O)=O)cc1,"inconclusive [inhibitor, full curve]",
Cc1sc2ncn(CC(=O)NCCN(C)C)c(=O)c2c1S(=O)(=O)N1CCC(C)CC1,"inconclusive [inhibitor, full curve, poor fit]",
CCCn1c(SCC(=O)c2cc(OC)ccc2OC)nnc1C(C)C,"inconclusive [inhibitor, full curve, poor fit]",
CC1=C(C(=O)OCCNC(=O)c2ccccc2O)C(c2ccccc2[N+](=O)[O-])C(C(=O)OCC2CCCO2)=C(C)N1 (configuration not stated),,inactive: -9.61%
Cc1c(NC(=O)CCCCCN2C(=O)C3C4C=CC(C4)C3C2=O)c(=O)n(-c2ccccc2)n1C (configuration not stated),"inconclusive [inhibitor, full curve, poor fit]",
CC1CCCCC1NC(=O)c1ccc(S(=O)(=O)N2CCN(C)CC2)cc1 (configuration not stated),"inconclusive [inhibitor, full curve, poor fit]",
COC(=O)c1cc(COc2ccc3oc(C)c(C(=O)OC)c3c2)c(C)o1,"inconclusive [inhibitor, full curve, poor fit]",
CNC(=O)c1ccc(OC2CSC2)cc1,"inconclusive [inhibitor, single point]",
CCN(CC)C1=NC(=[N+](CC)CC)c2ccccc21,,inactive: -0.466%
COc1cccc(C(=O)Nc2cc(C)nn2-c2ccccc2)c1OC,,inactive: 6.11%
